Measurements taken from PubChem BioAssay AID686978 (National Center for Advancing Translational Sciences (NCATS), 2013).
Where “and” joins values, the source holds several entries; their conditions need not be identical. Equal entries are not always repeated. In all, about 420,000 compounds went through this assay and about 64,000 (15%) were called active. The shares of active, inactive and inconclusive entries below differ from those in the screen. Calls follow the shape of the dose curve; as a rule, active = well fitted inhibition curve with a large enough effect; inconclusive = small, poorly fitted or top-dose-only effect; inactive = flat fitted curve, though single readings scatter. Potencies of inconclusive entries are doubtful fits and often do not repeat.

experiment: qHTS for Inhibitors of human tyrosyl-DNA phosphodiesterase 1 (TDP1): qHTS in cells in absence of CPT; conditions: DT40 Tdp1-/- hTDP1 cells, no CPT, ATP luminescence, 48 h; activity change, negative = growth inhibition: at 46.2 µM (top of the series) unless noted; also: nearly all actives have a fitted effect of over 55% in size
Procedure, shortened: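 Camptothecin absent (DMSO only). Human TDP1-complemented DT40 knockout cells, 400 cells/well, 37 °C for minimum 48 hr; ATP measured via CellTiter-Glo, 30 min dark incubation, luminescence.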
% is scaled to controls: 0 for no effect and ±100 for the full control effect; potency is read from the fitted curve at half-maximal effect; tags tell the direction and shape of the fitted curve.

**Q.** Which Potency does the source give for `CCCn1cc(S(=O)(=O)c2ccc(C)cc2)c(=O)c2cc(OCC)ccc21` here?
**A.** The Potency was inconclusive: 29.1 µM [inhibitor, single point].

**Q.** For `CCN(CC)CCOC(=O)c1ccc(NC(=O)c2cc3cccc(OC)c3oc2=O)cc1`, which Potency is on record?
**A.** The Potency was inconclusive: 20.6 µM [inhibitor, single point].

**Q.** With `CCCCNC(=O)C1(C)CCN1C(=O)CSc1ccccc1` (stereo unspecified) as the compound, how does the “activity change, negative = growth inhibition” value read?
**A.** Its value is inactive: -9.11%.

**Q.** With `CC1c2ccccc2-c2ccccc2N1C` (stereo unspecified) as the compound, how does the Potency read?
**A.** Its Potency is inconclusive: 20.6 µM [inhibitor, single point].

**Q.** For `CC1CCN(c2c(NCc3ccc(C(=O)NCCc4ccc(Cl)cc4)cc3)c(=O)c2=O)CC1`, which Potency is on record?
**A.** The Potency was inconclusive: 29.1 µM [inhibitor, single point].

**Q.** With `O=C(Nc1ccncc1)C1CCN(S(=O)(=O)c2cccc(C(F)(F)F)c2)CC1` as the compound, how does the Potency read?
**A.** Its Potency is inconclusive: 20.6 µM [inhibitor, single point].

**Q.** With `COc1ccc(Cl)cc1NC(=O)Cn1nnc(C(=O)NCc2ccc3c(c2)OCO3)c1N` as the compound, how does the Potency read?
**A.** Its Potency is “inactive and inconclusive: 29.1 µM [inhibitor, single point]”.

**Q.** For `COC(=O)c1sccc1S(=O)(=O)N1CCN(c2ccc(C(C)=O)cc2)CC1`, which “activity change, negative = growth inhibition” value is on record?
**A.** The value was inactive: -28%.

**Q.** With `CCCc1c(C(=O)N/N=C/C(C)=C/c2ccco2)nnn1-c1nonc1N` as the compound, how does the Potency read?
**A.** Its Potency is inconclusive: 29.1 µM [inhibitor, single point].

**Q.** For `CC(C)(C)c1ccc(OCC(=O)N(Cc2cccs2)C2CCS(=O)(=O)C2)cc1` (stereo unspecified), which Potency is on record?
**A.** The Potency was inconclusive: 29.1 µM [inhibitor, single point].

**Q.** With `O=C(NCC(c1ccco1)N1CCCCC1)c1ccc([N+](=O)[O-])s1` (stereo unspecified) as the compound, how does the Potency read?
**A.** Its Potency is active: 23.1 µM.

**Q.** Which “activity change, negative = growth inhibition” value does the source give for `C(=N\Nc1nc(N2CCOCC2)nc(N2CCOCC2)n1)/c1cccnc1` here?
**A.** The value was inactive: -11.4%.

**Q.** Which “activity change, negative = growth inhibition” value does the source give for `Cc1ccc(-c2cc(C(=O)Nc3c(C(=O)c4ccc(C)c(F)c4)oc4ccccc34)no2)cc1` here?
**A.** The value was inactive: -8.13%.

**Q.** For `CCOCCc1nn2c(=O)cc(COC(=O)c3cccc(C)c3)nc2s1`, which Potency is on record?
**A.** Its Potency is inconclusive: 29.1 µM [inhibitor, single point].

**Q.** With `CN1CCN(c2ncnc3sc(-c4ccccc4)cc23)CC1` as the compound, how does the Potency read?
**A.** Its Potency is inconclusive: 16.4 µM [inhibitor, partial curve].

**Q.** Which Potency does the source give for `CCOC(=O)c1c(NC(=O)CSc2cn(CCNC(=O)c3c(F)cccc3F)c3ccccc23)sc2c1CCCC2` here?
**A.** The Potency was inconclusive: 25.9 µM [inhibitor, single point].

**Q.** With `COc1ccc(NS(=O)(=O)c2ccc(C)c(C(=O)NNC(=O)c3ccccc3O)c2)cc1` as the compound, how does the Potency read?
**A.** The Potency was inconclusive: 25.9 µM [inhibitor, single point].

**Q.** For `CCc1ccc(O)c(N=Cc2cccc(C)c2O)c1`, which Potency is on record?
**A.** The Potency was active: 20.6 µM.

**Q.** With `COc1ccc(C=O)c(-c2c(CCO)sc3ccccc23)c1` as the compound, how does the Potency read?
**A.** Its Potency is inconclusive: 16.4 µM [inhibitor, partial curve].

**Q.** Which Potency does the source give for `COc1ccc(C2=Cc3ccccc3C(CC(=O)C3CC3)N2c2ccc(C#CCCO)cc2)cc1` (stereo unspecified) here?
**A.** The Potency was inconclusive: 16.4 µM [inhibitor, single point].

**Q.** With `C/C(=C\CNc1ncnc2nc[nH]c12)CO` as the compound, how does the Potency read?
**A.** The Potency was “inactive”.

**Q.** Which “activity change, negative = growth inhibition” value does the source give for `O=C(NC1CC2CCCC(C1)N2CC(=O)N1CCCc2ccccc21)C1CCCCC1` (stereo unspecified) here?
**A.** The value was inactive: -29.9%.

**Q.** Which “activity change, negative = growth inhibition” value does the source give for `Cn1c(SCC(=O)NC2CC2)nnc1-c1ccccc1` here?
**A.** Its value is inactive: -0.718%.

**Q.** With `COc1ccc(C(=O)NC2CCSc3ccccc32)cc1S(=O)(=O)N1CCOCC1` (stereo unspecified) as the compound, how does the Potency read?
**A.** The Potency was inconclusive: 25.9 µM [inhibitor, single point].

**Q.** With `Cc1ccc(Cn2c(CN3CCC(C(=O)NCC(C)c4ccccc4)CC3)cc3ccccc32)cc1` (stereo unspecified) as the compound, how does the Potency read?
**A.** Its Potency is active: 25.9 µM.

**Q.** With `COC(=O)CNC(=O)CSc1nnc(C)c(=O)[nH]1` as the compound, how does the “activity change, negative = growth inhibition” value read?
**A.** The value was inactive: -0.777%.

**Q.** Which Potency does the source give for `CC(C)Cc1ccc(C2=CSC3=NCCN23)cc1` here?
**A.** The Potency was inconclusive: 29.1 µM [inhibitor, single point].

**Q.** For `O=C(Nc1ccc(NC(=S)NC(=O)c2ccccc2F)cc1)c1cccs1`, which Potency is on record?
**A.** Its Potency is inconclusive: 29.1 µM [inhibitor, single point].

**Q.** For `O=C(Cc1ccc(Cl)cc1)Nc1ccc2oc(=O)ccc2c1`, which “activity change, negative = growth inhibition” value is on record?
**A.** The value was inactive: -26.5%.

**Q.** Which “activity change, negative = growth inhibition” value does the source give for `CC(=O)c1ccc(NC(=O)c2cc(C3CC3)nc3c2c(C)nn3-c2ccc(C)cc2)cc1` here?
**A.** Its value is inactive: -26.7%.

**Q.** Which “activity change, negative = growth inhibition” value does the source give for `O=C(NCc1ccc(Cl)cc1)C1CCCN1C(=O)Nc1ccccc1` (stereo unspecified) here?
**A.** Its value is inactive: -12.9%.

**Q.** With `c1cc(-c2nsc(-c3ccncc3)n2)ccn1` as the compound, how does the Potency read?
**A.** Its Potency is inconclusive: 18.4 µM [inhibitor, single point].

**Q.** Which Potency does the source give for `N#Cc1ccc(-c2ccccc2)nc1SCC(=O)c1cc2ccccc2oc1=O` here?
**A.** The Potency was inconclusive: 25.9 µM [inhibitor, single point].

**Q.** Which “activity change, negative = growth inhibition” value does the source give for `O=C(CNC(=O)c1ccc(Br)o1)NCc1ccccc1Cl` here?
**A.** Its value is inactive: -2.94%.

**Q.** For `COc1ccc(C)c2sc(N(CCN(C)C)C(=O)c3ccc(S(=O)(=O)N(C)c4ccccc4)cc3)nc12`, which Potency is on record?
**A.** Its Potency is inconclusive: 18.4 µM [inhibitor, single point].

**Q.** With `CC(C)n1nnnc1C1c2ccccc2C(=O)N1CCc1c[nH]c2ccccc12` (stereo unspecified) as the compound, how does the Potency read?
**A.** The Potency was inconclusive: 23.1 µM [inhibitor, single point].

**Q.** Which Potency does the source give for `Cc1sc2nc(CSc3nnnn3-c3ccc(Cl)cc3)[nH]c(=O)c2c1C` here?
**A.** The Potency was active: 16.4 µM.

**Q.** For `Cc1ccc(Cc2c(-c3ccc(Cl)cc3)nc3c4ccccc4ccn23)cc1`, which Potency is on record?
**A.** Its Potency is inconclusive: 23.5 µM [inhibitor, single point].

**Q.** For `Clc1ccc(OCc2cn3ccccc3n2)c2ncccc12`, which Potency is on record?
**A.** The Potency was active: 16.4 µM.

**Q.** With `COc1ccc(S(=O)(=O)N2CCN(C(=O)c3ccccc3Cc3ccccc3)CC2)cc1OC` as the compound, how does the Potency read?
**A.** The Potency was active: 23.1 µM.

**Q.** Which Potency does the source give for `Cc1ccc(Cl)cc1N1CCN(S(=O)(=O)c2ccc(-c3cnc(C4CC4)o3)cc2)CC1` here?
**A.** Its Potency is active: 13 µM.

**Q.** Which Potency does the source give for `O=[N+]([O-])c1ccc(C=NNC(=S)Nc2ccc(F)cc2)cc1` here?
**A.** The Potency was active: 2.91 µM.

**Q.** With `COc1ccc(NC2=CC(=O)CC(c3ccc(C)cc3)C2)c(OC)c1` (stereo unspecified) as the compound, how does the Potency read?
**A.** The Potency was inconclusive: 13 µM [inhibitor, partial curve].

**Q.** For `O=C(CSc1nc(-c2ccccc2)c(-c2ccccc2)[nH]1)Nc1nccs1`, which Potency is on record?
**A.** Its Potency is inconclusive: 29.1 µM [inhibitor, single point].

**Q.** For `COC(=O)CSc1nc2c(c(-c3ccc(O)cc3)c1C#N)CCCC2`, which Potency is on record?
**A.** The Potency was inconclusive: 14.6 µM [inhibitor, partial curve, poor fit].

**Q.** For `COc1ccc(CCC(=O)Nc2ccc(S(=O)(=O)N3CCOCC3)cc2)cc1OC`, which Potency is on record?
**A.** The Potency was inconclusive: 29.1 µM [inhibitor, partial curve, poor fit].
